In the RNAGym collection of RNA variant scans (doi:10.1073/pnas.2313332121):
Variants at the background level are over-represented here.

B1: TPR 5TU (parent)
chain: GGAUCUUCUCGAUCUAACAAAAAAGACAAAUCUGCCACAAAGCUUGAGAGCAUCUUCGGAUGCAGAGGCGGCAGCCUUCGGUGGCGCGAUAGCGCCAACGUUCUCAACUAUGACACGCAAAACGCGUGCUCCGUUGAAUGGAGUUUAUCAUG

Variants of: B1
Assay: polymerase ribozyme fitness, log enrichment relative to wild type (log ratio); higher = more active; in vitro selection for triplet polymerase activity
Summary of the method: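 Mutant libraries were PCR-built and transcribed for each subunit of a heterodimeric triplet polymerase ribozyme and selected for one round in triplicate at −7 °C, frozen, before gel excision of extended constructs and streptavidin-bead capture. Input and output libraries were Illumina-sequenced, keeping genotypes with ≥10 input reads and ≥1 read per output. Fitness is a logarithmic ratio of genotype to wild-type enrichment, in base 2, using inverse-variance-weighted replicate averages.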

| Variant | polymerase ribozyme fitness (log ratio) |
| --- | --- |
| G84U G86C C93G A98U A142U | -1.78 |
| G84U G86U C87G G136U | ≤ -4.2 |
| G84U G88A A120C | ≤ -4.2 |
| G84U G92C A121U | -2.94 |
| G84U G117A | -2 |
| G84U G126A | -1.87 |
| G84U G133C U135C | ≤ -4.2 |
| G84U G140A | ≤ -4.2 |
| G84U U101G A107C G136A | ≤ -4.2 |
| G84U U102C C149G | ≤ -4.2 |
| C85A A89G U146C | -2.83 |
| C85A A91C A147G | ≤ -4.2 |
| C85A A91G C95A A98U U111G | ≤ -4.2 |
| C85A A91U C108G U148G | ≤ -4.2 |
| C85A A120U | -1.7 |
| C85A A137U | ≤ -4.2 |
| C85A A142C | -3.23 |
| C85A A150G | -2.41 |
| C85A C87G G94A C108G C129G U144A | ≤ -4.2 |
| C85A C93U A119C G126U U127A | ≤ -4.2 |
| C85A C95A C125U | -1.39 |
| C85A C95G A115G | -3.81 |
| C85A C96U C132A | -3.67 |
| C85A C96U G128A | -4.19 |

| Variant | polymerase ribozyme fitness (log ratio) |
| --- | --- |
| C85A C99A C129G U134G A138U | ≤ -4.2 |
| C85A C99G U139G U146G | ≤ -4.2 |
| C85A C116A | 0.744 |
| C85A C118A | -0.973 |
| C85A C125U | -1.7 |
| C85A G94A U127A | ≤ -4.2 |
| C85A G126C U148A | -4.13 |
| C85A G133A | ≤ -4.2 |
| C85A G136U | ≤ -4.2 |
| C85A G152U | -3.5 |
| C85A U104G A113C A120U | ≤ -4.2 |
| C85A U109G | -1.33 |
| C85A U111A | ≤ -4.2 |
| C85A U134G | -3.6 |
| C85G A91C | ≤ -4.2 |
| C85G A107G U127C | ≤ -4.2 |
| C85G A119U | -3.69 |
| C85G A147C | -1.67 |
| C85G C87A C95A U134G A142G | ≤ -4.2 |
| C85G C93G | -3.68 |
| C85G C95A A107G U109A A137U A138G | ≤ -4.2 |
| C85G C96G | -3.49 |
| C85G C99G C116G G136U | ≤ -4.2 |
| C85G C105G | ≤ -4.2 |

| Variant | polymerase ribozyme fitness (log ratio) |
| --- | --- |
| C85G C114U | -3.49 |
| C85G C116U U144C | -3.36 |
| C85G C125A C131A C149U | ≤ -4.2 |
| C85G C131G | ≤ -4.2 |
| C85G G92C A106C A120U A121G U134A | ≤ -4.2 |
| C85G G94A C95G U135A | -3.95 |
| C85G G100A U146C | ≤ -4.2 |
| C85G G100U G141U | ≤ -4.2 |
| C85G G128C | ≤ -4.2 |
| C85G G128C G143A U144C U146A | ≤ -4.2 |
| C85G G133A | ≤ -4.2 |
| C85G G133U | ≤ -4.2 |
| C85G G141C | -3.06 |
| C85G U101C U104G C131G | ≤ -4.2 |
| C85G U104G A119C G143U C149G | ≤ -4.2 |
| C85G U135A | -3.38 |
| C85G U135C | -3.66 |
| C85G U144G | -1.75 |
| C85U A89G | -2.67 |
| C85U A89U A107C A121G | ≤ -4.2 |
| C85U A89U A110C A121U G136A U146C | ≤ -4.2 |
| C85U A91C U102C | ≤ -4.2 |
| C85U A91C U102G C105U C108G C131U | ≤ -4.2 |
| C85U A91U G133U G143A | ≤ -4.2 |

| Variant | polymerase ribozyme fitness (log ratio) |
| --- | --- |
| C85U A115G | -2.3 |
| C85U A115U G140A G152C | ≤ -4.2 |
| C85U A122C | -1.06 |
| C85U A142G U145C C149A | ≤ -4.2 |
| C85U C96U A98G A150G | -2.21 |
| C85U C103U | -2.17 |
| C85U C108A | ≤ -4.2 |
| C85U C114G G128A | ≤ -4.2 |
| C85U C116G | -0.942 |
| C85U C116G U151G | ≤ -4.2 |
| C85U C125G | -0.638 |
| C85U G92U C125A G136C | -3.55 |
| C85U G94U A107G C114U A120U C149U | ≤ -4.2 |
| C85U G100U A121C G124A C125G G136A A142G G152U | ≤ -4.2 |
| C85U G117U | 0.675 |
| C85U G128U C131U | -2.93 |
| C85U G133U | -2.28 |
| C85U G133U G143A | ≤ -4.2 |
| C85U G136U | -1.83 |
| C85U G143A | 0.273 |
| C85U G152U | -3.73 |
| C85U U101A | -0.791 |
| C85U U146G U148C | -2.24 |
| G86A A89U | -1.96 |

| Variant | polymerase ribozyme fitness (log ratio) |
| --- | --- |
| G86A A91C C118U | ≤ -4.2 |
| G86A A110U | ≤ -4.2 |
| G86A A150G | -3.09 |
| G86A C105U | -0.138 |
| G86A C108G | ≤ -4.2 |
| G86A C149A | ≤ -4.2 |
| G86A G88U A137U | ≤ -4.2 |
| G86A G94C C132U G141C | ≤ -4.2 |
| G86A U102G | -4.05 |
| G86C A89G C95A A113G C114G A142U | ≤ -4.2 |
| G86C A107G C125G | ≤ -4.2 |
| G86C C105U | -1.5 |
| G86C G94C C116G | ≤ -4.2 |
| G86C G100A G136U U144A | ≤ -4.2 |
| G86C G124A U144A | -2.44 |
| G86C U90G G140C | ≤ -4.2 |
| G86C U101G U134A | ≤ -4.2 |
| G86C U104A | -2.46 |
| G86C U109G C118G | -3.5 |
| G86C U145C | -3.66 |
| G86U A107G G143C U151A | ≤ -4.2 |
| G86U A110U | ≤ -4.2 |
| G86U C87A C95A U104A | ≤ -4.2 |
| G86U C87A G143C U144C U146A | ≤ -4.2 |

| Variant | polymerase ribozyme fitness (log ratio) |
| --- | --- |
| G86U C87U A91C G117C | ≤ -4.2 |
| G86U C105A | -2.68 |
| G86U C132A | ≤ -4.2 |
| G86U C149A | ≤ -4.2 |
| G86U G92C | -2.75 |
| G86U U90G C103A A119C A121C A138C | ≤ -4.2 |
| G86U U90G U139A | ≤ -4.2 |
| C87A A89C C95A | ≤ -4.2 |
| C87A A91G G152U | -4.13 |
| C87A A106G G124U U146C | ≤ -4.2 |
| C87A A107C | ≤ -4.2 |
| C87A A110G | ≤ -4.2 |
| C87A A122C G136U | ≤ -4.2 |
| C87A C105G | ≤ -4.2 |
| C87A C105U A107U | ≤ -4.2 |
| C87A C105U A122U | ≤ -4.2 |
| C87A G88A G117A A119G | ≤ -4.2 |
| C87A G92A G140U | ≤ -4.2 |
| C87A G100A | ≤ -4.2 |
| C87A G117A | ≤ -4.2 |
| C87A G117U U135C | ≤ -4.2 |
| C87A G124A C125G | ≤ -4.2 |
| C87A G133U U145C | ≤ -4.2 |
| C87A G141A | -3.89 |

| Variant | polymerase ribozyme fitness (log ratio) |
| --- | --- |
| C87A U90C G94A | ≤ -4.2 |
| C87A U101G G124A A142C | -4.02 |
| C87A U146A | ≤ -4.2 |
| C87G A97U G100C | ≤ -4.2 |
| C87G A115C U134C A150C | ≤ -4.2 |
| C87G C105U C114G G143A | ≤ -4.2 |
| C87G G88U G143U | ≤ -4.2 |
| C87G G92C C125U U127G U135G G141C | ≤ -4.2 |
| C87G G94C C132G | ≤ -4.2 |
| C87G G112U | ≤ -4.2 |
| C87G G128A | ≤ -4.2 |
| C87G G128U | ≤ -4.2 |
| C87G G133U | ≤ -4.2 |
| C87G G143C | ≤ -4.2 |
| C87G U109A A122C U144A | ≤ -4.2 |
| C87G U111A C118U | ≤ -4.2 |
| C87G U111C A120U | ≤ -4.2 |
| C87G U134A | ≤ -4.2 |
| C87U A91G C105G | -4.02 |
| C87U A98G | -1.67 |
| C87U A110G G112U | ≤ -4.2 |
| C87U A122G | -1.83 |
| C87U A137G U148C | -3.87 |
